# Results: the supplement of paper PMC3334620
# Over roughly 33,000 sequences, “E-score (-0.5 to 0.5)” has its median near -0.016; the highest 2% begin near 0.31. The list shows a part of the results.
# Target: Cst6 (UniProt P40535)
# Experiment: PBM E-score (8-mer binding enrichment) (E-score (-0.5 to 0.5)); higher = stronger / more preferred TF binding; most listed sequences are background and not binding sites
# Conditions: protein concentration: 200 nM; construct: GST-DNA-binding domain
# Outline: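 GST-tagged yeast TFs (full-length or DNA-binding domain) were made by PURExpress in vitro transcription/translation and applied at about 100-200 nM to universal all-10-mer Agilent arrays. The arrays were made double-stranded by primer extension, on fresh or once-stripped slides. Bound protein was detected with fluorescent anti-GST, and scans were normalised with masliner. Each ungapped eight-base word, pooled with its reverse complement, received an E-score (modified Wilcoxon-Mann-Whitney statistic) from the Universal PBM Analysis Suite.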
row,Sequence,PBM E-score
1,AGCAAGGC,-0.0509
2,CCAATCGC,-0.0449
3,TCCAGCCA,-0.172
4,ACCCTTGG,-0.267
5,TGCAGGCA,-0.107
6,AGATGCTA,0.00857
7,ACACGTGG,0.0374
8,AAATGCAT,0.0407
9,ATGACAGG,0.0675
10,CTGTCGGA,-0.175
11,GGCATAAC,0.102
12,AACATGGG,-0.0504
13,ACAAGTCA,-0.037
14,CCGATATC,-0.149
15,AAGGGCTG,-0.306
16,GAAGATGC,-0.139
17,ACGCGGTG,-0.101
18,AATACAAA,0.287
19,CAGACAGG,-0.15
20,GGCGATCA,-0.0417
21,AGATTGGA,-0.0529
22,CCTATACC,-0.169

row,Sequence,PBM E-score
1,CGCCAAAC,-0.0827
2,GAACCTAA,-0.124
3,GGAGGGAA,-0.42
4,CATGAGCC,-0.159
5,AATCACTA,0.159
6,ATTGGGGA,-0.109
7,CGCAGTAG,-0.101
8,AGCCTTCA,0.0604
9,CTAGTGAC,0.234
10,TGCAGCCA,-0.11
11,CTCGCCCA,-0.136
12,TAAAGCAA,0.0677
13,CATTGCAA,-0.126
14,AATGCCGT,0.418
15,AGGACGAA,-0.0114
16,AACACCTC,-0.0672
17,CGCATCGA,0.108
18,TATCACCA,0.123
19,AGCCAGCT,-0.0742
20,GGTACAAA,0.00094
21,CTCGATGA,0.112
22,AATTGCCA,0.0303

row,Sequence,PBM E-score
1,ATTGTCCG,-0.00764
2,CCATAGCG,-0.0739
3,CCCCCGAA,-0.245
4,CATCCTAC,-0.0877
5,AGCCACTG,-0.0843
6,GAATCTAA,0.097
7,AGCTGGCC,0.0131
8,GATAGGGC,-0.242
9,GCGATTTA,0.0726
10,AAAGGAAT,0.0293
11,GAGCCTCA,0.00319
12,GGTTGCAC,-0.136
13,GCCGGAAA,-0.138
14,TAGTCACA,0.0725
15,CTAAGGAG,-0.206
16,CCCGTATC,-0.233
17,AAAATTGG,0.106
18,GGGCTCGA,-0.112
19,CCGTTGTC,0.0455
20,ACGGCTAT,0.115
21,CACGGCGC,0.357
22,CAGTAGAC,0.0414

row,Sequence,PBM E-score
1,GAATTAAC,0.128
2,GGTGGTTA,-0.00265
3,CTGGTTGC,-0.0494
4,AACACAGA,-0.00148
5,GGATAATA,0.148
6,AAAGATTC,0.236
7,AAGGTGAC,0.243
8,GTCGCAAC,-0.0642
9,CTAACATA,0.176
10,GGCTTCGA,-0.00844
11,CACAAAGA,0.0847
12,ACGTAGAT,0.251
13,AGGACCAC,-0.347
14,GATTCCAC,0.097
15,GTCCTTTA,-0.0901
16,GGCGGGAC,-0.222
17,ACCTCGTC,-0.0551
18,CGCGCCAG,0.0582
19,GTGCCTCA,0.0677
20,GGTGGAAA,-0.0896
